The source of these data is PubChem BioAssay AID485344 (National Center for Advancing Translational Sciences (NCATS), 2010).

In all, about 340,000 compounds went through this assay and about 6,900 (2%) were called active. No stated cut-off is given here; in the data, active means inhibition above about 30%; inactive means below that, where a call was filed. The list shows a part of the results, in another mix than the full data. The source gives no active or inactive call for entries shown without one.

For the experiment, the target named is D(2) dopamine receptor (Homo sapiens) (UniProt P14416). Put plainly: HTS Assay for Allosteric Antagonists of the Human D2 Dopamine Receptor: Primary Screen for Antagonists. Further: 0% is about no effect. Conditions: HEK293 TREx D2 cells, calcium flux, dopamine EC80; at 10 µM; stronger effect = higher value. The essentials: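 In this primary screen, negative modulation is detected by tracking calcium flux after an EC80 dopamine challenge in inducible HEK293 T-REx D2 cells preexposed to test compound for 180 s.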
UniProt P14416, sequence (P14416 whole entry, looked up): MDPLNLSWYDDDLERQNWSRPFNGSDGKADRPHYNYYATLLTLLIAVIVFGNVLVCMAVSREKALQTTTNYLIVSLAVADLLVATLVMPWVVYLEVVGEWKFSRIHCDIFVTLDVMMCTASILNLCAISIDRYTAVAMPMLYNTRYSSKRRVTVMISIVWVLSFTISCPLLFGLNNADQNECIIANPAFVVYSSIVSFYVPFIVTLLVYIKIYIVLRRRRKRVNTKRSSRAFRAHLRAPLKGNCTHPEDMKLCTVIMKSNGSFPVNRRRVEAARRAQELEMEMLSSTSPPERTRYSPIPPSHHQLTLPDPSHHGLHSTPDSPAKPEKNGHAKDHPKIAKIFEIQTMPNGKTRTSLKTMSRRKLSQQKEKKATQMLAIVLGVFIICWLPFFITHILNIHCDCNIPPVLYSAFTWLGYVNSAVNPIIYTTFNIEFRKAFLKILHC
(In general: A change in cytosolic calcium serves as a functional read-out for many receptors and channels.)
Regarding `COCCCNC(=O)Cn1nc(N2CCN(c3ccccc3)CC2)ccc1=O`, the inhibition (as a rule, the change of the read-out against control, counted positive when it falls) is -0.555%.

As to `Cn1c(-n2cccc2)c(-c2c(-c3ccc(F)cc3)[nH]c3c2c(=O)n(C)c(=O)n3C)c(=O)n(C)c1=O`, the inhibition was 3.32%.

For `Cc1ccc(S(=O)(=O)n2nc(-c3ccc(Cl)cc3)nc2NCc2ccccc2)cc1`, the inhibition amounted to 4.16%.

With `CC1CCc2c(sc3nnn(Cc4cccc(C(=O)OC(C)C)c4)c(=O)c23)C1` (configuration not stated), the inhibition turned out to be 15.3%.

On to `CN(C)CC/C=C1\c2ccccc2COc2ccccc21`, for which the inhibition was active: 50.7%.

`O=C1CSc2ccc(S(=O)(=O)NCc3ccc(Cl)cc3)cc2N1`: the inhibition was active: 36%.

On to `CC(C)=CCC/C(C)=C/C(=O)O`, for which the inhibition is active: 55.4%.

In the case of `CC(=O)N1CCc2c(sc3c2c(=O)n(-c2ccc(F)cc2)c(=O)n3Cc2ccc(C#N)cc2)C1`, the inhibition was found to be 2%.

As for `O=C(Nc1cccc(C(F)(F)F)c1)c1cc(-c2ccc(Cl)s2)nc2ccccc12`, the inhibition is -5.71%.

For the molecule `O=C(O)Cn1c(-c2cccs2)cc2cc(Cl)ccc21`, the inhibition amounted to 15%.

Regarding `O=C(Nc1cccs1)Nc1ccc(F)cc1F`, the inhibition is -26%.

Consider `O=C(Nc1nnc(SCc2ccc(F)cc2)s1)c1cnccn1`, for which the inhibition was active: 33.4%.

As to `COc1cccc(COC(=O)c2ccc(-c3nnn(Cc4cccc(OC)c4)n3)cc2)c1`, the inhibition worked out at 5.75%.

Take `CCOc1ccc(NC2SC(=O)N(Cc3ccccc3)C2=O)cc1` (configuration not stated): the inhibition was 1.33%.

In the case of `COc1ccccc1OCCCCN1CCN(C(c2ccccc2)c2ccccc2)CC1`, the inhibition is active: 61%.

`Cc1ccccc1Cn1cnc2c(NS(C)(=O)=O)c(C)c(C)cc21`: the inhibition was active: 34.8%.

Turning to `CCCCN(CC)C(=O)CSc1nc2n[nH]c(C)c2c(=N)n1-c1cccc(C)c1`, the inhibition was found to be 0.5%.

As for `COc1cccc2c1cc1c(=O)n(CC(=O)N3CCN(c4cccc(C(F)(F)F)c4)CC3)nc(C)n12`, the inhibition stood at 24.5%.

For the molecule `CCOc1ccccc1NC(=O)C(CC(C)C)NC(=O)C1CCC(C)CC1` (configuration not stated), the inhibition is 12.1%.

`Cc1ccc(NC(=O)CCc2c(C)nn(-c3ccc(N4CCOCC4)nn3)c2C)c(C)c1`: the inhibition is -4.32%.

For `O=C(COc1ccccc1Cl)Nc1nnc(S(=O)(=O)N2CCCC2)s1`, the inhibition is -11.5%.

With `COc1ccc(-n2nc3ccc(NC(=O)c4ccc(C#N)cc4F)cc3n2)cc1Cl`, the inhibition was -3.87%.

On to `O=C(NCc1ccccc1)c1nc(S(=O)(=O)Cc2ccc(F)cc2)ncc1Cl`, for which the inhibition was -10.6%.

On to `CCOc1ccc(C2C(C(=O)Nc3ccccc3)=C(C)Nc3nc(SCc4cccc(OC)c4)nn32)cc1` (configuration not stated), for which the inhibition was -9.64%.

In the case of `COc1ccc(NC2c3ccccc3C(=O)N2c2ccccn2)cc1` (configuration not stated), the inhibition was active: 41.1%.

With `Cc1ccc(/C=C/c2onc(C)c2S(=O)(=O)N2CCC(C(=O)N3CCN(c4cccc(C)c4)C(C)C3)CC2)cc1` (configuration not stated), the inhibition came to 21%.

Take `CC(C)CCOc1ccc(C2N=C(N)Nc3nc4ccccc4n32)cc1` (configuration not stated): the inhibition was found to be 11%.

On to `CCc1ccc(OCc2nc(-c3ccc(-n4cccc4)cc3)no2)cc1`, for which the inhibition was 4.25%.

With `CCc1nc(-c2cc(S(=O)(=O)N3CCN(c4ccc(OC)cc4)CC3)ccc2OC)no1`, the inhibition was -17.2%.

For the molecule `Cc1nn(C(C)C(=O)NC2CCC(C)CC2)c(=O)c2c1sc1ccccc12` (configuration not stated), the inhibition was 15.5%.

On to `CCOc1ccc(-c2cn3c(n2)sc2cc(C(=O)NCCc4ccc(OC)cc4OC)ccc23)cc1`, for which the inhibition stood at 10.4%.

As to `O=S(=O)(NCCc1csc2nc(-c3ccccc3)nn12)c1cccs1`, the inhibition was -1.09%.

For the molecule `CC1CN(C(=O)CCC(=O)NCc2cccc(Cl)c2)c2ccccc2S1` (configuration not stated), the inhibition was determined as 6.72%.

For the molecule `CC1CCN(CC2CCN(C(=O)NCc3ccc(F)cc3)CC2)CC1`, the inhibition is -28.4%.

For `O=C(O)c1ccc(Cn2cnc3cccnc32)cc1`, the inhibition stood at 26.3%.

`COc1ccc(S(=O)(=O)c2cnc3cc(OC)c(OC)cc3c2N2CCCC(C)C2)cc1` (configuration not stated): the inhibition amounted to 21%.

For the molecule `COc1ccccc1C(=O)N(Cc1nc(-c2cccc(C)c2)no1)C(C)C`, the inhibition came out at 20.7%.

As to `COc1ccc(C2=C(Nc3ccc(Br)c(C)c3)c3ccccc3C2=O)cc1`, the inhibition was -6.49%.

In the case of `COc1ccc(NC(=O)c2nn(C)c3c2CS(=O)(=O)c2ccccc2-3)cc1Cl`, the inhibition is -0.537%.

Take `CC(C)Nc1ccc(-c2nc(-c3ccncc3)no2)cc1[N+](=O)[O-]`: the inhibition is 18.4%.

Take `COc1ccc(N2CCN(Cc3nc4c(c(=O)[nH]c(=O)n4C)n3Cc3ccc(C)cc3)CC2)cc1`: the inhibition was -5.8%.

Consider `COc1ccc(N(CC(=O)NC(C)c2ccccc2)S(=O)(=O)c2c(C)nn(C)c2C)cc1` (configuration not stated), for which the inhibition is -3.15%.

For `CCOC(=O)c1c(C)[nH]c(C)c1S(=O)(=O)N1CCCC(C(=O)N2CCN(c3ccccc3F)CC2)C1` (configuration not stated), the inhibition turned out to be 4.37%.

With `CCc1nn(CC(=O)N2CCN(c3cccc(OC)c3)CC2)c(=O)c2cc3occc3n12`, the inhibition was 12.2%.

With `Cc1ccc(NC(=O)CN2C(=O)CCc3ccccc32)cc1C`, the inhibition turned out to be 3.5%.

Regarding `Cc1ccc(OCc2nc(-c3ccc(C(=O)NCCc4ccc(Cl)cc4)cc3)oc2C)cc1`, the inhibition amounted to 1.49%.

As for `Cn1c(=O)c2sccc2n2c(CCC(=O)N3CCN(c4ccc(F)cc4)CC3)nnc12`, the inhibition was -0.0302%.

Take `CCCCc1ccc(NC(=O)c2cc(-c3ccc(C)c(F)c3)on2)cc1`: the inhibition is 24.9%.

`CCC(=O)N1CCc2cc(S(=O)(=O)NCCC(=O)N3CCN(c4ccccc4)CC3)ccc21`: the inhibition was active: 34.3%.

`COc1ccccc1NC(=O)CSc1nc(O)c(C/C=C/c2ccccc2)c(=O)[nH]1`: the inhibition stood at 6.69%.

Regarding `CCc1nnc(NC(=O)CSc2nccn2Cc2ccc(C)cc2)s1`, the inhibition is 3.18%.

As to `COc1ccc(CNC(=O)c2nc(SCc3ccc(C)cc3)ncc2Cl)cc1`, the inhibition was -24%.

For the molecule `COc1ccc(Cn2c(=O)n(-c3ccc(F)c(Cl)c3)c(=O)c3c2c2cc(OC)ccc2n3C)cc1`, the inhibition is -3.78%.

Turning to `O=C(NCCCN1CCOCC1)c1ccc([N+](=O)[O-])cc1[N+](=O)[O-]`, the inhibition was active: 48.1%.

As for `CCOC(=O)c1c(S(=O)(=O)N2CCC(C(=O)NCc3cccc(C)c3)CC2)c(C)n(C)c1C`, the inhibition worked out at 9.82%.

Turning to `COC(=O)c1ccc(NC(=O)CN2CCN(CCO)CC2)cc1`, the inhibition is active: 33.2%.

Consider `Cc1cc(N2CCN(C)CC2)nc2ccc(NC(=O)c3ccc(C(C)(C)C)cc3)cc12`, for which the inhibition was -2.87%.

Consider `Cc1ccc(-n2nc(C(=O)Nc3ccc(F)cc3Cl)c(=O)n(C)c2=O)cc1`, for which the inhibition amounted to 10.7%.

As for `CN(Cc1ccccc1)c1nnc(NC(=O)Nc2cccc(Br)c2)s1`, the inhibition was found to be 11.4%.

Take `Cc1ccc(C(=O)n2nc(C)c(S(=O)(=O)N3CCCCCC3)c2C)cc1C`: the inhibition was found to be 12.6%.

Turning to `COc1ccc(N2CC(NC(=O)c3cccs3)CC2=O)cc1` (configuration not stated), the inhibition is -19.6%.

With `COC(=O)Cn1c(=NC(=O)c2ccc3c(c2)OCCO3)sc2ccccc21`, the inhibition is -24.6%.
